According to article PMC4336329 (PLoS ONE, 2015):
Out of some 310,000 compounds screened, about 14,000 (4.5%) showed an effect of 50% or more. The effect is printed as a negative number. The list shows a part of the results.
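Also: peak tail current of the secondary pulse compared with the same well before compound.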

These compounds were tested against human ether-à-go-go-related gene (hERG) potassium channel (human, UniProt Q12809) (assay: primary screen, population patch clamp on CHO cells stably expressing hERG).
human ether-à-go-go-related gene (hERG) potassium channel, sequence (Q12809 whole entry, looked up): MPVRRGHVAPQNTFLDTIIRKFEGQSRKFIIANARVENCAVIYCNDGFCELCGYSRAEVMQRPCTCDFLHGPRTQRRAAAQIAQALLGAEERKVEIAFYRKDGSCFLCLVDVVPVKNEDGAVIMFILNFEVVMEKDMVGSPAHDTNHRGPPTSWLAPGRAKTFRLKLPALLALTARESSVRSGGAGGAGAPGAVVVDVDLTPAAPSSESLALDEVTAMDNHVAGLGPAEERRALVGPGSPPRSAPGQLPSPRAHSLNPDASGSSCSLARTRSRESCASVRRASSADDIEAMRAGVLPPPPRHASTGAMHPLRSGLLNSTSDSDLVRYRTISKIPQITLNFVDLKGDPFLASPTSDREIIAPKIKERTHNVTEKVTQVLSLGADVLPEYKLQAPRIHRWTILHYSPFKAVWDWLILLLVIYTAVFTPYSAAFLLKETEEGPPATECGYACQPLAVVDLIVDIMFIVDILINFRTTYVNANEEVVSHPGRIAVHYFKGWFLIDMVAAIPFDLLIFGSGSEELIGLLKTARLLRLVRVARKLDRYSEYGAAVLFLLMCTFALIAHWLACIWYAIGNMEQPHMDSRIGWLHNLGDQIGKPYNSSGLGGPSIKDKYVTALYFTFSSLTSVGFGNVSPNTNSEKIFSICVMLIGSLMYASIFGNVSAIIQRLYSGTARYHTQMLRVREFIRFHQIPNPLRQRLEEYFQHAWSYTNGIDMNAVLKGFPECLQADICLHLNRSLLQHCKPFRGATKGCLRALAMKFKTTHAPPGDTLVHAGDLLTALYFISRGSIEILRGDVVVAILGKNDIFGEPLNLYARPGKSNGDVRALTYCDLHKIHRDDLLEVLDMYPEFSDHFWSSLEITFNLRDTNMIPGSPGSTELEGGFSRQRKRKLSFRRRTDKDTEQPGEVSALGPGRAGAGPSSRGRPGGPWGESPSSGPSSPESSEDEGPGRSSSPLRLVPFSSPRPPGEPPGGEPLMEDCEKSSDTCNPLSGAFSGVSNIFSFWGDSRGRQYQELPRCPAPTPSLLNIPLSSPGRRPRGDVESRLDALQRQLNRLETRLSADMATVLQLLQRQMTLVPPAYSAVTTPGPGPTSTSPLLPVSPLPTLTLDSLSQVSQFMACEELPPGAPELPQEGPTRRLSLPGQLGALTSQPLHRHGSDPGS
`Cc1ccccc1C(=O)Nc1ccc(O)cc1C(=O)O` was tested, and the “hERG current change (%, negative = inhibition) at 10uM” value was 32.1%. In the case of `Cc1ccc(S(=O)(=O)NC(=O)COc2ccccc2C)cc1`, the “hERG current change (%, negative = inhibition) at 10uM” value is reported as 17%. In the case of `COCCNC(=O)c1cccc(OC2CCN(Cc3ccc(F)c(OC)c3)CC2)c1`, the “hERG current change (%, negative = inhibition) at 10uM” value is reported as -16.2%. With `COc1cccc(CNC(=O)CCC2CCCN(C(=O)C3CCOCC3)C2)c1` (stereo not drawn) the “hERG current change (%, negative = inhibition) at 10uM” value was 1.51%. For `O=C(NCc1ccccn1)C1CCCN(Cc2cnn(-c3ccccc3)c2-n2cccc2)C1` (stereo not drawn), the “hERG current change (%, negative = inhibition) at 10uM” value was -24.5%. With `Cc1nn2cnnc2c(C)c1Cc1c(F)cccc1Cl` the “hERG current change (%, negative = inhibition) at 10uM” value was -13.4%. With `CN(CC(=O)Nc1ccc(Cl)cc1)C(=O)CCNC(=O)c1ccc(Cl)cc1` the “hERG current change (%, negative = inhibition) at 10uM” value was -67.7%. With `Cc1onc(-c2c(Cl)cccc2Cl)c1C(=O)Nc1nc(C(C)(C)C)cs1` the “hERG current change (%, negative = inhibition) at 10uM” value was -26.4%. `O=C(Cn1c(=O)n(Cc2ccc3c(c2)OCO3)c(=O)c2ccccc21)N1CCCc2ccccc21` was tested, and the “hERG current change (%, negative = inhibition) at 10uM” value was 4.46%. `CC(OC(=O)CCC(=O)c1ccc(F)cc1)C(=O)NC1CCCCC1C` (stereo not drawn) was tested, and the “hERG current change (%, negative = inhibition) at 10uM” value was 8.71%. With `C/C(C=O)=C/c1ccccc1` the “hERG current change (%, negative = inhibition) at 10uM” value was 16.5%. `Cc1ccc(-c2cc(C(F)F)n3ncc(C(=O)Nc4c(C)nn(Cc5ccccc5Cl)c4C)c3n2)cc1` was tested, and the “hERG current change (%, negative = inhibition) at 10uM” value was 9.8%. In the case of `Cc1c(C)c2ccc(OCC(=O)N[C@@H](Cc3c[nH]c4ccccc34)C(=O)O)cc2oc1=O`, the “hERG current change (%, negative = inhibition) at 10uM” value is reported as -1.71%. In the case of `COc1ccc(/C=N/N2CCOCC2)cc1Cn1cc([N+](=O)[O-])cn1`, the “hERG current change (%, negative = inhibition) at 10uM” value is reported as 1.52%. `O=C(NCCSCc1ccccc1)c1ccc(Cl)c(S(=O)(=O)N2CCOCC2)c1` was tested, and the “hERG current change (%, negative = inhibition) at 10uM” value was -50%. In the case of `Cc1c(-n2c(=S)[nH]c3ccccc3c2=O)c(=O)n(-c2ccccc2)n1C`, the “hERG current change (%, negative = inhibition) at 10uM” value is reported as 16.7%. With `COc1ccc(Cn2c(O)c(C=Nc3ccc(C)cc3)c3ccccc3c2=O)cc1` the “hERG current change (%, negative = inhibition) at 10uM” value was 2.35%. For `COc1ccc(COc2cc(-c3cccc(OC)c3)nc3ccc(NC(C)=O)cc23)cc1`, the “hERG current change (%, negative = inhibition) at 10uM” value was 4.89%. `CCc1noc(C)c1C(=O)Nc1ccc(C#N)cc1` was tested, and the “hERG current change (%, negative = inhibition) at 10uM” value was 7.65%. `O=C(CN1C(=O)NC(Cc2c[nH]c3ccccc23)C1=O)NCCc1ccccc1` (stereo not drawn) was tested, and the “hERG current change (%, negative = inhibition) at 10uM” value was 4.6%. `CC12CCC(c3nnc(SCc4ccc(Cl)cc4)nc31)C2(C)C` (stereo not drawn) was tested, and the “hERG current change (%, negative = inhibition) at 10uM” value was -6.48%. In the case of `COc1ccc(C(=O)N/C(=C/c2cccs2)C(=O)NN)cc1OC`, the “hERG current change (%, negative = inhibition) at 10uM” value is reported as 13.7%. `CC(=O)Nc1ccccc1OCc1nnc(-c2cccs2)o1` was tested, and the “hERG current change (%, negative = inhibition) at 10uM” value was 4.35%. `CN1CCN(CCC2Oc3cc([N+](=O)[O-])ccc3NC2=O)CC1` (stereo not drawn) was tested, and the “hERG current change (%, negative = inhibition) at 10uM” value was -11.3%. For `COc1cc(NC(=O)c2ccc(N)nc2)cc(C(=O)Nc2cccc(C(F)(F)F)c2)c1`, the “hERG current change (%, negative = inhibition) at 10uM” value was -5.66%. In the case of `CSc1ccccc1C(=O)C1CCCN(Cc2ccncc2)C1` (stereo not drawn), the “hERG current change (%, negative = inhibition) at 10uM” value is reported as -41.7%. With `CNC(=S)N/N=C/c1c(C)nn(-c2ccc(F)cc2)c1Cl` the “hERG current change (%, negative = inhibition) at 10uM” value was 16.5%. In the case of `CCCCN1C(=S)NC[C@@H]1Cc1ccccc1`, the “hERG current change (%, negative = inhibition) at 10uM” value is reported as -11.8%. `O=C(Cc1ccc(Cl)c(Cl)c1)NNC(=S)NCC1CCCO1` (stereo not drawn) was tested, and the “hERG current change (%, negative = inhibition) at 10uM” value was 0.91%. With `COc1ccc(CC(=O)O/N=C(\N)c2ccccn2)cc1OC` the “hERG current change (%, negative = inhibition) at 10uM” value was 10.2%. For `O=C1OC(NCc2cccnc2)(c2ccc(Cl)cc2)c2ccccc21` (stereo not drawn), the “hERG current change (%, negative = inhibition) at 10uM” value was 10.4%. For `COc1cc(/C=C(\C#N)C(=O)NC(C)C)cc(Cl)c1O`, the “hERG current change (%, negative = inhibition) at 10uM” value was 6.48%. In the case of `Cc1c(Cl)cccc1NC(=S)N(C)CCC#N`, the “hERG current change (%, negative = inhibition) at 10uM” value is reported as 28.5%. With `O=C(c1cc2ccccc2oc1=O)N(Cc1ccccc1F)C1CCS(=O)(=O)C1` (stereo not drawn) the “hERG current change (%, negative = inhibition) at 10uM” value was -7.73%. With `O=[N+]([O-])c1ccc2nc(NS(=O)(=O)c3ccc(F)cc3)sc2c1` the “hERG current change (%, negative = inhibition) at 10uM” value was 31.5%. `Cc1ccc(N(CC(=O)NCCSc2ccccn2)S(=O)(=O)c2ccc(F)cc2)cc1` was tested, and the “hERG current change (%, negative = inhibition) at 10uM” value was -30.3%. `CCOC(=O)c1c(N)sc(C(=O)N2CCCC2)c1C` was tested, and the “hERG current change (%, negative = inhibition) at 10uM” value was 12.3%. With `CCSc1nnc(NC(=O)[C@H](C)NC(=O)c2ccccc2Cl)s1` the “hERG current change (%, negative = inhibition) at 10uM” value was 18.8%. `Cc1ccc(S(=O)(=O)N2CCCCC2)cc1C(=O)NCCCN1CCOCC1` was tested, and the “hERG current change (%, negative = inhibition) at 10uM” value was 16.7%. `c1ccc2c(c1)Sc1ccccc1-n1cnnc1-2` was tested, and the “hERG current change (%, negative = inhibition) at 10uM” value was -20.3%. For `O=S(=O)(NCCCc1ccccc1)c1ccccc1`, the “hERG current change (%, negative = inhibition) at 10uM” value was 10.3%. For `Cc1ccc(NC(=O)CSc2nc3ccccc3nc2N2CCOCC2)c(C)c1`, the “hERG current change (%, negative = inhibition) at 10uM” value was 5.64%. For `CN(CCO)CC(O)Cn1cnc2c1c(=O)n(C)c(=O)n2C.O=C(O)c1cccnc1` (stereo not drawn), the “hERG current change (%, negative = inhibition) at 10uM” value was 19.7%. In the case of `CCc1nn2c(=O)cc(COc3ccc(/C=C4\C(=N)N5N=C(CC(C)C)SC5=NC4=O)cc3)nc2s1`, the “hERG current change (%, negative = inhibition) at 10uM” value is reported as -7.34%. For `CCNC(=S)NNC(=O)c1cc(C)on1`, the “hERG current change (%, negative = inhibition) at 10uM” value was 7.53%. With `COc1ccc(C(=O)C2CCCN(C(=O)c3cc(C(C)C)no3)C2)cc1F` (stereo not drawn) the “hERG current change (%, negative = inhibition) at 10uM” value was -56.9%. For `COc1ccccc1N1C(=O)C2CC(C)=C(C)CC2C1=O` (stereo not drawn), the “hERG current change (%, negative = inhibition) at 10uM” value was 5%. In the case of `CC1CN(C(=O)COc2ncnc3ccccc23)CC(C)O1` (stereo not drawn), the “hERG current change (%, negative = inhibition) at 10uM” value is reported as 24.6%. With `CCn1c(O)c(C=NCCN2CCOCC2)c(=O)[nH]c1=S` the “hERG current change (%, negative = inhibition) at 10uM” value was 3.42%. In the case of `O=C(Nc1ccc2c(c1)OCCO2)c1ccc2nccnc2c1`, the “hERG current change (%, negative = inhibition) at 10uM” value is reported as 3.73%. In the case of `CCN(CC)S(=O)(=O)c1cccc(C(=O)N[C@H](C(=O)O)C(C)C)c1`, the “hERG current change (%, negative = inhibition) at 10uM” value is reported as 7.81%. For `CC(C)CN(C(=O)CSc1nc(-c2ccccc2)cn1N)c1c(N)n(Cc2ccccc2)c(=O)[nH]c1=O`, the “hERG current change (%, negative = inhibition) at 10uM” value was 7.38%. In the case of `CCn1c(SCC(=O)N2CCOCC2)nc2sc3c(c2c1=O)CCCC3`, the “hERG current change (%, negative = inhibition) at 10uM” value is reported as -5.19%. With `Cc1cccc(NC(=O)CSc2nc3ccc(NC(=O)CSc4nnnn4-c4ccccc4)cc3s2)c1C` the “hERG current change (%, negative = inhibition) at 10uM” value was 4.63%. For `O=C(Nc1ccc(Cl)cc1Cl)Nn1cnnc1`, the “hERG current change (%, negative = inhibition) at 10uM” value was 0.0491%. With `CN(C)CCOC(=O)NC12CC3CC(CC(C3)C1)C2.Cl` the “hERG current change (%, negative = inhibition) at 10uM” value was -6.31%. In the case of `N#CCC(=O)N/N=C/c1cc(Br)ccc1OCc1cccc2ccccc12`, the “hERG current change (%, negative = inhibition) at 10uM” value is reported as 14.7%.
